# In PMC4336329 (PLoS ONE, 2015):
# The campaign covered roughly 310,000 compounds. About 2,200 (0.71%) showed an effect of 50% or more. The effect is printed as a negative number. Some of the results follow.
# Biological target: human ether-à-go-go-related gene (hERG) potassium channel (human, UniProt Q12809)
# Experiment: primary screen, population patch clamp on CHO cells stably expressing hERG
# Sequence of human ether-à-go-go-related gene (hERG) potassium channel (Q12809 whole entry, looked up): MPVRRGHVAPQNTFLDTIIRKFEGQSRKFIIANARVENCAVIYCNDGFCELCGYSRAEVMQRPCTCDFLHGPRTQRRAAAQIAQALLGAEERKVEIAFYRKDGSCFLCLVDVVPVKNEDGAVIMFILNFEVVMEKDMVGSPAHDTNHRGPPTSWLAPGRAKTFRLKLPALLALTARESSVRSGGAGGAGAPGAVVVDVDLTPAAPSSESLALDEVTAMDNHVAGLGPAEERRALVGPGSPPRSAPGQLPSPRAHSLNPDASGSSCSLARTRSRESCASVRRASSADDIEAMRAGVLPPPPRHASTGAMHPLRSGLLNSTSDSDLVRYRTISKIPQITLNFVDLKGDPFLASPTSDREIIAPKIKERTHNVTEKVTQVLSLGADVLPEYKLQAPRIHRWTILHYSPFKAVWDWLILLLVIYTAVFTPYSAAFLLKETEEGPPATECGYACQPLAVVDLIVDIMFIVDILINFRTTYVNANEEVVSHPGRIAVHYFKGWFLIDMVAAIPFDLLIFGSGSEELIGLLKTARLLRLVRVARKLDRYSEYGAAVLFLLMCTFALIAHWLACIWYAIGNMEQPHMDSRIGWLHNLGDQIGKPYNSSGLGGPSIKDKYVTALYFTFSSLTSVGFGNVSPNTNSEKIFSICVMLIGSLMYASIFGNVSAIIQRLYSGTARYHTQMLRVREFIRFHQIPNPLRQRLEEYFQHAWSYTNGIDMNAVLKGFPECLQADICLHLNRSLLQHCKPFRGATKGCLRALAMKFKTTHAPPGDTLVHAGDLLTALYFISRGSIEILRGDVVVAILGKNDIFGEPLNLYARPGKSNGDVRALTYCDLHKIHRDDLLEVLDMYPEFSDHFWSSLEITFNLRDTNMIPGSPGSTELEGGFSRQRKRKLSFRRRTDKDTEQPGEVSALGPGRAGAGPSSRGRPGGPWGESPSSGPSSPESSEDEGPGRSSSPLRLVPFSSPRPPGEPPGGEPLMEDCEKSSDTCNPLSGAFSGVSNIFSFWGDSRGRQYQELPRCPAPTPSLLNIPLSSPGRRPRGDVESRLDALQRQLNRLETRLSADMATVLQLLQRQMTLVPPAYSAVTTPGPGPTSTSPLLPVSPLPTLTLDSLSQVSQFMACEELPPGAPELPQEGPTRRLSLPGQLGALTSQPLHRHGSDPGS
row,Compound,"hERG current change (%, negative = inhibition) at 1uM [%]"
1,c1ccc(-c2noc(CSc3nnnn3-c3ccccc3)n2)cc1,7.02
2,Nc1c(C(=O)Nc2ccc(Cl)c(Cl)c2)sc2nc(-c3cccnc3)ccc12,6.61
3,Cc1ccc(O)c(-c2cc(-c3ccc(F)cc3)no2)c1,4.47
4,CCOc1ccc(NS(=O)(=O)c2c(C)nc3sccn3c2=O)cc1,-0.551
5,COc1cc(C(=O)Nc2nc(-c3cccs3)cs2)cc(OC)c1OC,19.2
6,Cc1ccc(CSc2nc3[nH]ncc3c(=O)[nH]2)cc1,7.57
7,O=C1Oc2ccccc2C(=O)/C1=C\N1CCN(c2ccccc2)CC1,5.42
8,O=C(CNS(=O)(=O)c1ccccc1)N/N=C/c1ccccc1[N+](=O)[O-],11
9,CC(Oc1ccc2c(=O)c(-c3ccc(Cl)cc3)c(C(F)(F)F)oc2c1)C(=O)O (stereo not shown),8.68
10,O=C(CCN1c2ccccc2Sc2ccccc21)OCC(=O)N1CCN(C(=O)c2ccco2)CC1,-0.873
11,Cc1cc(NC(=O)c2ccccc2)cc(NC(=O)c2ccccc2)c1C,17.2
12,O=C(NCC1CCCO1)c1ccc(Br)s1 (stereo not shown),12.8
13,CCCCC1(CO)C(=O)N(c2ccccc2)N(c2ccccc2)C1=O,11.3
14,CCOC(=O)c1c(CSc2ccccc2)n(C)c2ccc(O)cc12,15.4
15,c1ccc(-c2noc(-c3ccc4ccccc4c3)n2)cc1,13.4
16,CCN(CC)CCC(=O)N1c2ccccc2Sc2ccc(Cl)cc21.Cl,-3.67
17,Cc1ccc(C)c(/C=C(\C(=O)O)c2ccc(S(=O)(=O)N3CCCCC3)s2)c1,6.97
18,CCN(Cc1ccccc1)C(c1ccccn1)c1nnnn1C(C)(C)CC (stereo not shown),6.17
19,O=C(Cc1ccc2c(c1)OCCO2)N1CCN(S(=O)(=O)c2cccc(Cl)c2Cl)CC1,4.06
20,COCCc1ncc(CN2CCC(C(=O)Nc3ccc(-n4cccn4)cc3)CC2)cn1,-5.56
21,CCOC(=O)C1=C(Cn2ccc(C(F)(F)F)n2)NC(=O)NC1c1ccc2c(c1)OCO2 (stereo not shown),4.29
22,Cc1c(Cc2ccccc2)c(=O)n2c([nH]c3ccccc32)c1C#N,-3.06

row,Compound,"hERG current change (%, negative = inhibition) at 1uM [%]"
1,Cc1cc2cc(C)c3nnc(SCC(=O)N4CCCc5ccccc54)n3c2cc1C,-6.41
2,CCCOc1c(OC)cccc1C1CC(=O)Nc2cc3c(cc21)OCO3 (stereo not shown),7.27
3,CCOc1ccc(NC(=O)Cn2sc3nc(C)cc(C)c3c2=O)cc1,6.16
4,COc1ccccc1NC(=O)COc1ccc(C(F)(F)F)cc1[N+](=O)[O-],2.82
5,Cc1ccc(C)c(Nc2nc3nonc3nc2N2CCOCC2)c1,17.6
6,CCCCCc1ccc(OCCC[n+]2ccccc2)c(CCCCC)c1.[Cl-],-33.9
7,CC1C(=O)CC(c2ccc([N+](=O)[O-])cc2)NC1c1ccc([N+](=O)[O-])cc1.Cl (stereo not shown),-51
8,CCOc1ccc(Nc2nc3ccccc3n2C)cc1,11.2
9,CC(NC(=O)c1ccco1)C1COc2ccccc2O1 (stereo not shown),12.6
10,N#CC1=C(N)C(C#N)(C#N)C(c2cccnc2)C2CCCC=C12 (stereo not shown),-1.61
11,O=C(Nc1nc(C2C3CC4CC(C3)CC2C4)cs1)c1cc2cc([N+](=O)[O-])ccc2oc1=O (stereo not shown),5.63
12,COc1ccc(CC(=O)N(CCN(C)C)CC2CCCN(Cc3ccccc3F)C2)cc1 (stereo not shown),8.8
13,O=C(Cn1ccc([N+](=O)[O-])n1)N1CCCCCC1,13.1
14,O=C(O)c1ccc(S(=O)(=O)NCC2CCCO2)cc1 (stereo not shown),6.37
15,Cn1c(N)c(Br)c(-c2ccc(F)cc2)c(C#N)c1=O,4.34
16,CCN(CC)P(=O)(Oc1ccccc1)Oc1ccccc1,9.28
17,CCCCn1cc(S(=O)(=O)c2ccccc2)c(=O)c2cc(C)ccc21,-7.29
18,COC(=O)COc1ccccc1C(N)=O,0.27
19,O=c1c2ccccc2nc(SCc2nc(-c3ccccc3)no2)n1-c1ccc(F)cc1,14.3
20,O=C(/C=C/c1ccccc1)c1ccc(NC2=NCCCS2)cc1,13.1
21,O=C(c1ccc(NC2=NC3CS(=O)(=O)CC3S2)cc1)N1CCN(c2ccccc2)CC1 (stereo not shown),15.1
